In article PMC4336329 (PLoS ONE, 2015):
Screen size: about 310,000 compounds; about 2,200 (0.71%) showed an effect of 50% or more. Effects have a minus sign here. The list shows a part of the results.

Molecular target: human ether-à-go-go-related gene (hERG) potassium channel (human, UniProt Q12809)
Test: primary screen, population patch clamp on CHO cells stably expressing hERG

Sequence of human ether-à-go-go-related gene (hERG) potassium channel (Q12809 whole entry, looked up): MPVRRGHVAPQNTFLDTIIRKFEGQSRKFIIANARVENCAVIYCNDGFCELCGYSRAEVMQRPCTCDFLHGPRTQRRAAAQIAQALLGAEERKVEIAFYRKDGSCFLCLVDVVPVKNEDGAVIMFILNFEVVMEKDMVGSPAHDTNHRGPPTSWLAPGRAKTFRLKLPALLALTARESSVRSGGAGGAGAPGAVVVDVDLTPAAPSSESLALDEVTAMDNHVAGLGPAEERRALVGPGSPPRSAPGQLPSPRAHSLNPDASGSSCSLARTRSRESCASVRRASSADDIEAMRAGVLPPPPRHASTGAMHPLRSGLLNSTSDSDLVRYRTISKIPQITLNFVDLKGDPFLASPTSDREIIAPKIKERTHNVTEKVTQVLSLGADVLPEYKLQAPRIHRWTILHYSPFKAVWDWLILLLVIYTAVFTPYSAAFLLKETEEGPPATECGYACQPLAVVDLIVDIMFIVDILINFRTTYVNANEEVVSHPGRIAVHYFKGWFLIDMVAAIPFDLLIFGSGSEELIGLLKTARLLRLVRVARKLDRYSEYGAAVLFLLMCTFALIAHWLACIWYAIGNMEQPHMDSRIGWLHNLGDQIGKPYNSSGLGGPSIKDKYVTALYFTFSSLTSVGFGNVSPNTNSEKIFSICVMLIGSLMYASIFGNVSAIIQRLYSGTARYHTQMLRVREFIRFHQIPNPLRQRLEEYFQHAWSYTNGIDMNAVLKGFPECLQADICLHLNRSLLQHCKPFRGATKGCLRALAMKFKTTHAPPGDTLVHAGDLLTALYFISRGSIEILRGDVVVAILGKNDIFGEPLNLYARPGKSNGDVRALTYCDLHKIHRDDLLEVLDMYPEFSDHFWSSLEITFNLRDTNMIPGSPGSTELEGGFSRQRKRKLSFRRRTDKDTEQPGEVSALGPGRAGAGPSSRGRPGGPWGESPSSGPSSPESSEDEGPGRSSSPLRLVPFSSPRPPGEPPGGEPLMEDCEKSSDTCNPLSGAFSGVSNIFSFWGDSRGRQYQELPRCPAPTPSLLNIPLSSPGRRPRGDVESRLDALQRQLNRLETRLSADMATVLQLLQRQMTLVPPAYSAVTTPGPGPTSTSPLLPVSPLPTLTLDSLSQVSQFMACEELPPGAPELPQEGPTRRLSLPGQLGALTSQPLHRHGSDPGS

SMILES | hERG current change (%, negative = inhibition) at 1uM [%]
Clc1ccc(/C=N/Nc2ncnc3ccccc23)cc1Cl | 11.7
CCCCNC(=O)/C=C/c1ccc(S(=O)(=O)Nc2ccc(OC)cc2)cc1 | 9.16
CC(=O)OCCN(CCCn1c(-c2ccncc2)nc2ccccc21)c1nc(CN2CCCCC2)cs1 | -37.8
CSc1ccccc1NC(=O)c1cc(C(C)C)on1 | 14
COc1ccc2[nH]c(C)c(CCNC(=S)Nc3cccc(C)c3C)c2c1 | 18.2
O=C(CNc1ccc(C(F)(F)F)cc1[N+](=O)[O-])OCC(=O)c1ccccc1 | -4.69
CN1CCN(NC(=O)c2ccc(S(=O)(=O)N3CC4(C)CC3CC(C)(C)C4)cc2)CC1.Cl (centres unmarked) | 7.2
CCn1cc(Br)c(C(=O)Nc2ccc(Cl)cc2Cl)n1 | 13.9
Cc1cc(S(=O)(=O)N2CCN(c3ccccc3F)CC2)ccc1-n1cnnn1 | 7.6
Cc1[nH]c(=O)c(C#N)c(C)c1Cl | 4.51
COc1cc(/C=N/NC(=O)c2ccccc2Cl)ccc1Oc1ccc([N+](=O)[O-])cn1 | -5.81
CCN(C(=O)c1ccc(Cl)c([N+](=O)[O-])c1)c1ccccc1 | -6.86
O=C(Nc1nnc(CC2=CCCCC2)s1)c1cccs1 | 21.5
O=C(Cc1ccc(Cl)cc1)NCCCn1ccnc1 | 9.11
Cc1ccc(/C=C/C(=O)O)cc1S(=O)(=O)N1CCc2ccccc2C1 | 19
Cc1ccccc1N=C(NOCc1ccccc1)c1nonc1N | 11.6
COc1cccc(CNC(=O)c2nnn(CC(=O)Nc3c(C)cccc3C)c2N)c1 | 16
O=C(CNS(=O)(=O)c1ccc(Br)cc1)NC1CCCC1 | 19.4
Cc1ccc(N(CC(=O)NC2CCCC2)C(=O)CNC(=O)c2cccs2)cc1F | 20.1

SMILES | hERG current change (%, negative = inhibition) at 1uM [%]
CCCCS(=O)(=O)N1CN(S(=O)(=O)CCCC)C2NC(=O)NC21 (centres unmarked) | 5.79
COc1ccc(-c2cc(N3CCCC3)n3ncnc3n2)cc1 | -6.72
NS(=O)(=O)c1cccc(NC(=O)CSc2ncc(C(F)(F)F)cc2Cl)c1 | 8.83
Cn1c(=O)c2c(SCC(=O)N3CCCCC3)nc(-c3ccccc3F)nc2n(C)c1=O | 17
N#C/C(=C\c1cccn1-c1ccccc1)C(=O)NC1CCCCC1 | 12
CCOC(=O)c1cnc2c(-c3ccccc3)c(C)nn2c1N | 7.34
Cl.O=c1cc(CN2CCNCC2)nc2sccn12 | 7.27
CCOC(=O)c1c(NC(=O)C(C)Sc2cn(C)c3ccccc23)sc2c1CCC2 (centres unmarked) | 16.7
Cc1c(-n2c(SC(C)C(=O)NC(N)=O)nc3ccccc3c2=O)c(=O)n(-c2ccccc2)n1C (centres unmarked) | 11.4
CCc1nn(C(C)C(=O)NC2CCCCCC2)c(=O)c2cc3occc3n12 (centres unmarked) | -3.97
CCN(CC(=O)Nc1ccc(NC(C)=O)cc1)C(=O)CCCOc1cccc(C)c1 | 6.48
Cc1ccc2nc(N3CC(C)OC(C)C3)nc(-c3ccccc3)c2c1 (centres unmarked) | 10
Cc1cc2cc(CNC(=O)NC3CCCCC3)ccc2n1C | 2.93
O=C(NCCn1ccc2ccccc21)c1ccc(S(=O)(=O)N2CCCCC2)cc1 | 5.93
O=C(/C=C/c1ccccc1[N+](=O)[O-])NCc1cccnc1 | 14
O=C(/C=C/c1ccc(F)cc1)NC(=S)N1CCOCC1 | 9.09
CCOc1ccccc1NC(=O)NC(C)c1ccncc1 (centres unmarked) | 8.99
Cc1nn(Cc2ccc([N+](=O)[O-])cc2)c(=O)n1-c1ccc(Cl)cc1 | -23.7
COc1cc(NC(=O)C2CC(c3c(F)cccc3Cl)=NO2)cc(OC)c1OC (centres unmarked) | -1.02

SMILES | hERG current change (%, negative = inhibition) at 1uM [%]
COCCNc1oc(Cc2cccc3ccccc23)nc1C#N | 13.3
Cc1cc(C)c(O)c(-c2cc(C(=O)Nc3c(C)n(C)n(-c4ccccc4)c3=O)[nH]n2)c1 | -2.72
CSc1ccc(S(=O)(=O)N2CCC(C(=O)NC3CC3)CC2)cc1 | 9.26
Cc1ccc(-c2nnc(SCC(=O)NNC(=O)COc3cccc4ccccc34)n2C)cc1 | 9.81
CCC(=O)Nc1ccc(Nc2nc(C)c([N+](=O)[O-])c(Nc3ccc(NC(=O)CC)cc3)n2)cc1 | 10.5
CC1=C(C(=O)OC(C)(C)C)C(c2ccco2)C(C#N)=C(N)O1 (centres unmarked) | 20.2
Brc1ccc2c(c1)[C@H]1OCC[C@H]1[C@@H](c1cccs1)N2 | 9.78
COc1ccc(-c2[nH]nc3c2C(c2ccsc2)C(C#N)=C(N)O3)cc1 (centres unmarked) | 19.5
COc1cc(C(C)=O)ccc1OCc1cc(C(=O)N(C)CCC2CCCCO2)no1 (centres unmarked) | 26.5
O=C(COC(=O)c1ccccc1C(=O)c1ccc(Cl)c([N+](=O)[O-])c1)NC1CCCCCC1 | 14.6
Cc1sc2nc(CSCC(=O)NC3(C#N)CCCCC3)[nH]c(=O)c2c1C | 20.1
O=[N+]([O-])c1cccc(C2(O)COc3ccccc3O2)c1 (centres unmarked) | 11.6
CCOc1ccc(OCC)c(S(=O)(=O)NC2CC(C)(C)NC(C)(C)C2)c1 | 14.7
COc1ccc(OCC(=O)Nc2c3c(nn2C(C)(C)C)CS(=O)(=O)C3)cc1 | 3.32
COc1ccccc1-c1cc(C(=O)N2CCCC2)no1 | 0.778
CC(C)(C)OC(=O)NCC(=O)Oc1cc2oc(=O)cc(-c3ccccc3)c2cc1Cl | 5.72
CCOC(=O)CNC1CC(=O)N(c2ccc(Br)cc2)C1=O (centres unmarked) | 21.8
CCOc1ccc(C(CC(=O)O)NC(=O)C23CC4CC(CC(C4)C2)C3)cc1OC (centres unmarked) | 14.3
